Measured values as given in the RNAGym collection of RNA variant scans (doi:10.1073/pnas.2313332121).
Variants at the floor of the assay are shown more often than the library holds them.

B1: TPR 5TU (parent)
chain: GGAUCUUCUCGAUCUAACAAAAAAGACAAAUCUGCCACAAAGCUUGAGAGCAUCUUCGGAUGCAGAGGCGGCAGCCUUCGGUGGCGCGAUAGCGCCAACGUUCUCAACUAUGACACGCAAAACGCGUGCUCCGUUGAAUGGAGUUUAUCAUG

Variants of: B1
Experiment: polymerase ribozyme fitness, log enrichment relative to wild type (log ratio); higher = more active; in vitro selection for triplet polymerase activity
Summary of the method: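 In triplicate, a single round of in vitro selection was run on each mutant library, PCR-built and transcribed, covering one subunit of a heterodimeric triplet polymerase ribozyme. Frozen incubation at −7 °C followed annealing with a biotinylated primer, partner subunit and triplets, and extended constructs were then gel-excised, streptavidin-captured and taken through RT-PCR. Fitness is the logarithm of genotype enrichment over wild-type enrichment, from inverse-variance-weighted replicate averages of Illumina-sequenced inputs and outputs. […] only genotypes with ≥10 input reads and ≥1 read per output were kept.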

| Variant | polymerase ribozyme fitness (log ratio) |
| --- | --- |
| A39U C43U C96A C103A C105A A147C | ≤ -4.2 |
| A39U C43U U61A U135G G136A | ≤ -4.2 |
| A39U C51U C79A A91G | ≤ -4.2 |
| A39U C51U U77C G94U A115C | ≤ -4.2 |
| A39U C54G G86A G88C G140A G141C | ≤ -4.2 |
| A39U C54U C87A C99A G133U | ≤ -4.2 |
| A39U C54U C93U A107U C108U U109A G140C | ≤ -4.2 |
| A39U C54U G67C C116G C123U | ≤ -4.2 |
| A39U C54U U127G A150U | ≤ -4.2 |
| A39U C57A A60C A73U A97U C123U A142U | ≤ -4.2 |
| A39U C79U C93A | ≤ -4.2 |
| A39U C87G | ≤ -4.2 |
| A39U C93G C105U U135A A142C | ≤ -4.2 |
| A39U C96A C99G | ≤ -4.2 |
| A39U C96G C99G A106G | ≤ -4.2 |
| A39U C99A | -3.7 |
| A39U G42C C76U U102A A120U A122G G140A | ≤ -4.2 |
| A39U G42C U53A C95U | ≤ -4.2 |
| A39U G42C U77C C85A | ≤ -4.2 |
| A39U G46C G74C | ≤ -4.2 |
| A39U G48A A60U U78A C132A A138C | ≤ -4.2 |
| A39U G50A A91U A106G G152A | ≤ -4.2 |
| A39U G50A C76U C96A U134A | ≤ -4.2 |
| A39U G58A G88A U90G A106C | ≤ -4.2 |

| Variant | polymerase ribozyme fitness (log ratio) |
| --- | --- |
| A39U G58U A60C C76U C87G | ≤ -4.2 |
| A39U G59A U78A C93U A97U C108G U148A | ≤ -4.2 |
| A39U G62A A91U C93A A138C C149A | ≤ -4.2 |
| A39U G81A C103G A142C | ≤ -4.2 |
| A39U G83C A106C C116A C131A | ≤ -4.2 |
| A39U G83U A150C | ≤ -4.2 |
| A39U G86U G128A U130G A138C | ≤ -4.2 |
| A39U G92C C108G G126A | ≤ -4.2 |
| A39U G94A A119U G140A | ≤ -4.2 |
| A39U G117C G143U C149G | ≤ -4.2 |
| A39U G126C | -0.865 |
| A39U G141U | -1.56 |
| A39U U53A C85A | ≤ -4.2 |
| A39U U53A G86U | -3.7 |
| A39U U53A U55A U56A C93U A106U U135C U148A | ≤ -4.2 |
| A39U U55A C57A U90G G92A | ≤ -4.2 |
| A39U U77A G81C C87U C95U A98C G126U G136C | ≤ -4.2 |
| A39U U78C G94U U102G | ≤ -4.2 |
| A39U U102C | -4.01 |
| A39U U102G | ≤ -4.2 |
| A40C A41C A107U C108G G117C | ≤ -4.2 |
| A40C A41C C43U U53G C95U | ≤ -4.2 |
| A40C A41G C108U C114U U139G | ≤ -4.2 |
| A40C A41U G70A U151A | ≤ -4.2 |

| Variant | polymerase ribozyme fitness (log ratio) |
| --- | --- |
| A40C A47U C87A A89U C103A U130A G136U | ≤ -4.2 |
| A40C A49C C57A | ≤ -4.2 |
| A40C A49C C96U C99U C114U C123U | ≤ -4.2 |
| A40C A49C G81U A98G | ≤ -4.2 |
| A40C A49U G50A U61A C85U A137U A142G U148A | ≤ -4.2 |
| A40C A52C | -1.04 |
| A40C A52G G80U C114G G128U G133U | ≤ -4.2 |
| A40C A52U U56A G58C G84A C96G C116G A147U | ≤ -4.2 |
| A40C A60U G70A C103A A107G | ≤ -4.2 |
| A40C A89C U90G U102A U139G G141A | ≤ -4.2 |
| A40C A137G | -1.42 |
| A40C C43A C95U | ≤ -4.2 |
| A40C C51A C57U U77C C93U C131U G143U | ≤ -4.2 |
| A40C C51U C93G A113C A115U | ≤ -4.2 |
| A40C C51U G84A | -0.15 |
| A40C C54A G83A G100C | ≤ -4.2 |
| A40C C54G U77G C93U G143U U146C | ≤ -4.2 |
| A40C C57U C75U G86A A119U U135A | ≤ -4.2 |
| A40C C57U U82G C95G A110U | ≤ -4.2 |
| A40C C69A G86U C105G | ≤ -4.2 |
| A40C C69G C75U A98U U135G U151G | ≤ -4.2 |
| A40C C72U C85G G136U C149A | ≤ -4.2 |
| A40C C75A A89C G92U | ≤ -4.2 |
| A40C C75U U78A G80U A106G G124U U139G G140U | ≤ -4.2 |

| Variant | polymerase ribozyme fitness (log ratio) |
| --- | --- |
| A40C C76A C87U C116G G152U | ≤ -4.2 |
| A40C C79A C96U U101G U127A | ≤ -4.2 |
| A40C C79U U104A C125A G141A | ≤ -4.2 |
| A40C C85A U102G G143A | ≤ -4.2 |
| A40C C85A U146G G152C | ≤ -4.2 |
| A40C C85G A106G G117C | -1.29 |
| A40C C85G C87U C93U U148C | ≤ -4.2 |
| A40C C85G C108G | ≤ -4.2 |
| A40C C85G G92A U130A | ≤ -4.2 |
| A40C C87A A89G | ≤ -4.2 |
| A40C C87A A120C G133U | ≤ -4.2 |
| A40C C87A C99G U127A | ≤ -4.2 |
| A40C C93A G143A | -3.22 |
| A40C C96U A150G | -1.3 |
| A40C C96U G141A U148C | ≤ -4.2 |
| A40C G42A C54G C95G C96U A110G | ≤ -4.2 |
| A40C G42C A52G C54U C96G U109G | ≤ -4.2 |
| A40C G42C U44A A49G U53G A64G G65U C79U C85A | ≤ -4.2 |
| A40C G42C U78G A150G | ≤ -4.2 |
| A40C G42U C87G G117C | ≤ -4.2 |
| A40C G46A U55A G68A G86A C87U A107U G141C | ≤ -4.2 |
| A40C G46U U148G | ≤ -4.2 |
| A40C G48A A89U C95G U104C A106C | ≤ -4.2 |
| A40C G50C U56A A91C | ≤ -4.2 |

| Variant | polymerase ribozyme fitness (log ratio) |
| --- | --- |
| A40C G50C U82C C85A U101A A106C A115U A142U | ≤ -4.2 |
| A40C G50U C85U | 0.316 |
| A40C G58C U101C C116U C123G A138G C149G | ≤ -4.2 |
| A40C G59A G94U G140U C149G | ≤ -4.2 |
| A40C G59A U77G C93G A137C U148G | ≤ -4.2 |
| A40C G62A A73C U78C A89C A98U U109G A121U G133U G136U | ≤ -4.2 |
| A40C G67C G71C A98G C103A C105G | ≤ -4.2 |
| A40C G71C G80C G126U U144G | ≤ -4.2 |
| A40C G88C C118A A147G | ≤ -4.2 |
| A40C G92C A120G A121C G152A | ≤ -4.2 |
| A40C U44A G50U C54G G81C C149A | ≤ -4.2 |
| A40C U44G U78G U90G | ≤ -4.2 |
| A40C U45A A66U G83A G88U A97C A122U A138U | ≤ -4.2 |
| A40C U45A C54U | ≤ -4.2 |
| A40C U45A G84C G86C C87U A122G | ≤ -4.2 |
| A40C U53A A66G C85U G86U C103G C114G G143C | ≤ -4.2 |
| A40C U56A G59U A107C G133A U148G | ≤ -4.2 |
| A40C U56G G71A C87G A106C U130G | ≤ -4.2 |
| A40C U56G G74A G88U | ≤ -4.2 |
| A40C U61A A91G A97U G141U | ≤ -4.2 |
| A40C U61A C76A | ≤ -4.2 |
| A40C U61A C76G U109G U130A | ≤ -4.2 |
| A40C U61G C87G C93A G143C | ≤ -4.2 |
| A40C U77C C116A C125U | ≤ -4.2 |

| Variant | polymerase ribozyme fitness (log ratio) |
| --- | --- |
| A40C U78A G86A | ≤ -4.2 |
| A40C U78G G84U G88U G141U | ≤ -4.2 |
| A40C U90G A91U A110U A142G | ≤ -4.2 |
| A40C U134G A142G U145A | -3.46 |
| A40G A41C C57A G59C G88C U101G A115U U135C G152C | ≤ -4.2 |
| A40G A41G G59C G92C C116G C131G | ≤ -4.2 |
| A40G A41U U53A C123A C125U U134G | -3.73 |
| A40G A47C U82C G86A G92A A121U C132U | ≤ -4.2 |
| A40G A52C A91U A120U | ≤ -4.2 |
| A40G A52C U53A U55A G58A C125G | ≤ -4.2 |
| A40G A52G G65U G80A G92A C95A A142C | ≤ -4.2 |
| A40G A52U G68A G74A C79A C125U U135A G136C | ≤ -4.2 |
| A40G A66C G88A | ≤ -4.2 |
| A40G A73U C87A U130G | ≤ -4.2 |
| A40G A106C A138G | ≤ -4.2 |
| A40G A110C | ≤ -4.2 |
| A40G C43U C125G G133U | ≤ -4.2 |
| A40G C43U G50C G100A A106U U130C | ≤ -4.2 |
| A40G C51G C57U C96A G112A A113C G136A | ≤ -4.2 |
| A40G C54A G68A G92A | ≤ -4.2 |
| A40G C54G G126A | -3.46 |
| A40G C54U A73C G83C G86U U101G A113G C118A | ≤ -4.2 |
| A40G C54U C96U G141U | -2.2 |
| A40G C54U U78G U90G C93G C123A | ≤ -4.2 |

| Variant | polymerase ribozyme fitness (log ratio) |
| --- | --- |
| A40G C57A C87A C95A C116A G128U U130A C131G | ≤ -4.2 |
| A40G C57U U111G U146C | ≤ -4.2 |
| A40G C63A U90G U134G | ≤ -4.2 |
| A40G C75G A97G | ≤ -4.2 |
| A40G C76G C103G G126U | ≤ -4.2 |
| A40G C79A C93A G124A | ≤ -4.2 |
| A40G C79G U145A | ≤ -4.2 |
| A40G C79U C85G C103U A122U | ≤ -4.2 |
| A40G C85A A110G | ≤ -4.2 |
| A40G C85G U90G C99U U109G | ≤ -4.2 |
| A40G C87A | ≤ -4.2 |
| A40G C87U C93U A98C G136A U139G G141C | ≤ -4.2 |
| A40G C93A G136U | ≤ -4.2 |
| A40G C93U C99U | -4.16 |
| A40G C108G G141C U148A | ≤ -4.2 |
| A40G C118U | -2.18 |
| A40G G42C C57U G59A C93G | ≤ -4.2 |
| A40G G42C C63G C72A C125A | ≤ -4.2 |
| A40G G42C U56G G88C A106U G124U G133U U139A A142U | ≤ -4.2 |
| A40G G42U C103G | ≤ -4.2 |
| A40G G50C G67C U77G C95U U101C U109G A110C | ≤ -4.2 |
| A40G G58C G94A G141A | -3.65 |
| A40G G58C U102G G136A | ≤ -4.2 |
